Reference: PMC4336329 (PLoS ONE, 2015)
The whole screen tested about 310,000 compounds, of which about 14,000 (4.5%) showed an effect of 50% or more. The effect is printed as a negative number. The list shows a part of the results.

Target: human ether-à-go-go-related gene (hERG) potassium channel (human, UniProt Q12809)
Assay: primary screen, population patch clamp on CHO cells stably expressing hERG
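Note: peak tail current of the secondary pulse compared with the same well before compound.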

Chain of human ether-à-go-go-related gene (hERG) potassium channel (Q12809 whole entry, looked up): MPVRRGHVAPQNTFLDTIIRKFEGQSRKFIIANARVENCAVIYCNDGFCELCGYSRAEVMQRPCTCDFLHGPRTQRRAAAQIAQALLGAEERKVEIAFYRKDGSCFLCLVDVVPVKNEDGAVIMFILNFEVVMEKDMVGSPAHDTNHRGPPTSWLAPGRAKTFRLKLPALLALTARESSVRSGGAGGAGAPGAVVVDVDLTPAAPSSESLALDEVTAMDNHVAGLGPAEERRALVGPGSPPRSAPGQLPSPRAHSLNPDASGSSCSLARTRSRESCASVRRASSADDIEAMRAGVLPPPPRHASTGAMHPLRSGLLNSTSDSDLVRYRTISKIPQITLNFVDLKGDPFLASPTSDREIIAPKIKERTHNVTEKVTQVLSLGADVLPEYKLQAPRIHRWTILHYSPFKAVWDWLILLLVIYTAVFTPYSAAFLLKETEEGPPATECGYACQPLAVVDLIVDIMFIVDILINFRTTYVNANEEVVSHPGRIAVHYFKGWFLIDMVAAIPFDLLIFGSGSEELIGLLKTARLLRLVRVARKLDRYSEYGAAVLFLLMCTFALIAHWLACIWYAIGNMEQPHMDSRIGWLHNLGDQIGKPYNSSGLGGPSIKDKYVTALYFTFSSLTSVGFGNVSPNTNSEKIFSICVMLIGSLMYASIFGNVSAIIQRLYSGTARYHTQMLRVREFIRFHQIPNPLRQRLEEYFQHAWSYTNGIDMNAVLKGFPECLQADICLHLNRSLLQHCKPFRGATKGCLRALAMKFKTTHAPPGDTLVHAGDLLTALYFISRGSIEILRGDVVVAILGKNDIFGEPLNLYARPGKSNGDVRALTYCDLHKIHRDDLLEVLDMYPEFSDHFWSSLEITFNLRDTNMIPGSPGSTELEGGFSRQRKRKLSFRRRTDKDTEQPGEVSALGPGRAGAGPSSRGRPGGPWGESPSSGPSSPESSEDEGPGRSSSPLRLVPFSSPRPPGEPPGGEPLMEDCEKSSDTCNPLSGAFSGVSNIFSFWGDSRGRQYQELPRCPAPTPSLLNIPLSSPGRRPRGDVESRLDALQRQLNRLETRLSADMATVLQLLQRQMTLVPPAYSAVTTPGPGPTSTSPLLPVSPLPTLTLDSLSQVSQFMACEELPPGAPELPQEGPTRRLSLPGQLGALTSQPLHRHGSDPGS

SMILES | hERG current change (%, negative = inhibition) at 10uM [%]
O=C(OCCN=C1NS(=O)(=O)c2ccccc21)c1ccccc1 | -4.4
C[C@@H]1CN(Cc2cn(C)nc2-c2cccc(Cl)c2)C[C@H](C)O1 | 7.05
c1ccc(C[C@H]2CN=C(Nc3ccccc3)N2CCC2CCCC2)cc1 | -70.4
C/C(=N\N=C1\NC(=O)C(Cc2ccccc2)S1)c1ccccc1 (centres unmarked) | 16.2
CCOc1ccc(NC(=O)CSc2nnc(N)s2)c([N+](=O)[O-])c1 | -4.34
Fc1cc2[nH]c(=S)[nH]c2cc1Cl | 15.9
NC(=O)c1ccsc1NC(=O)C1CCCCC1 | -9.84
CC1=Nc2cc(C(=O)NCCCN3CCN(C)CC3)ccc2Sc2ccc(C)cc21 | -5.05
O=C(CSc1nc2scc(-c3ccccc3)c2c(=O)[nH]1)Nc1ccccc1 | 17.9
CC(=O)Nc1cccc(NC(=O)COc2ccc3c(c2)OCO3)c1 | 4.48
COc1ccc(C2c3c(-c4ccccc4)n[nH]c3C(=O)N2c2ccc(C(=O)O)cc2)cc1 (centres unmarked) | 8.05
C=CC(C)N1C(=O)S/C(=C\c2ccc(N3CCOCC3)cc2C)C1=O (centres unmarked) | -0.998
Cc1cccnc1Nc1nc(-c2ccccc2)cs1 | 11.3
COc1cc(OC)cc(C(=O)Nc2ncc3c(n2)CC(C)(C)CC3=O)c1 | -6.84
Cc1ccc(NCCCCO)cc1C | 15.4
CC(=O)c1cc(CC(=O)N2CCc3c([nH]c4ccccc34)C2c2ccccn2)cs1 (centres unmarked) | -34.8
CCOc1ccc(CCNS(=O)(=O)c2ccc(-c3ccc(=O)[nH]n3)o2)cc1OCC | -7.29
CCNc1ccc(S(=O)(=O)N2CCCCC2)cn1 | 5.02
COCCNC(=O)CN(c1cc(Cl)ccc1OC)S(=O)(=O)c1ccc(C)c([N+](=O)[O-])c1 | 3.25

SMILES | hERG current change (%, negative = inhibition) at 10uM [%]
COc1cccc(-c2nc(-c3ccc(NC(=O)c4cccnc4)cc3)no2)c1 | 0.251
O=S(=O)(c1ccccc1F)N1CCN(Cc2cc3c(cc2O)OCO3)CC1 | -11.8
CN(C)S(=O)(=O)c1cc(NC(=O)c2cc(=O)[nH]c3ccccc23)ccc1Cl | 14.9
NS(=O)(=O)c1ccc(NC(=O)c2ccc(Cl)c(S(=O)(=O)NCc3ccco3)c2)cc1 | 3.38
O=C(C1=C[C@H](c2ccc3c(c2)OCO3)C[C@H](OCCCCO)O1)N1CCOCC1 | -1.14
CC(Oc1ccc2c3c(c(=O)oc2c1)CCCC3)C(=O)NCC(O)c1ccccc1 (centres unmarked) | 16.8
Cc1ccc(C(c2nnnn2C(C)(C)C)N(Cc2ccco2)Cc2cccs2)cc1 (centres unmarked) | 16
CCC(=O)/C=C1/Sc2ccc(OC)cc2N1CCO | 17.9
Cc1cc(C)c(S(=O)(=O)Nc2nnc(C(C)C)s2)c(C)c1 | 20.9
N=C1SC(CC(=O)Nc2ccccc2[N+](=O)[O-])C(=O)N1c1ccccc1 (centres unmarked) | 20.7
N#Cc1cc2[nH]c3ccccc3c2[n+](-c2ccc([N+](=O)[O-])cc2)c1N.[Cl-] | -65.1
CC(=O)c1sc(-c2ccc(F)cc2)cc1NS(=O)(=O)c1ccccc1 | 4.92
CC1=CC(C#N)(C#N)C(C#N)(C#N)C(c2ccccc2)N1 (centres unmarked) | 19.2
COc1ccc(CN(C(=O)c2cccs2)c2ccccc2)cc1 | 0.428
[O-][n+]1c2c(nn1-c1ccccc1)/C(=N/O)CCC2 | -8.05
CCCN1CN(Cc2ccccc2)CC2=C1CC(C)(C)CC2=O.Cl | -0.494
Cc1c(C(=O)N(C)C(C)c2ccccn2)oc2c(F)cccc12 (centres unmarked) | 3.08
COC(=O)c1c(C(=O)OC)c(-c2ccc(Cl)c(Cl)c2)n2c1CCC2 | 6.14
O=C(CSc1nc2ccccc2c(=O)n1-c1ccccc1)N1CCc2ccccc21 | 2.15
